From PubChem BioAssay AID540317 (National Center for Advancing Translational Sciences (NCATS), 2011)
The whole screen tested about 390,000 compounds, of which about 2,200 (0.56%) were called active. The inconclusive results got no clear call from the source; some entries with a clear call stand among them for comparison. Calls come from the whole dose curve; as a rule, active = well fitted inhibition curve with a large enough effect; inconclusive = small, poorly fitted or top-dose-only effect; inactive = no such curve, though single readings can be large or run the other way. Potencies of inconclusive entries are doubtful fits and often do not repeat.

Target: Chromobox protein homolog 1 (Homo sapiens) (UniProt P83916)
UniProt P83916, sequence (P83916 whole entry, looked up): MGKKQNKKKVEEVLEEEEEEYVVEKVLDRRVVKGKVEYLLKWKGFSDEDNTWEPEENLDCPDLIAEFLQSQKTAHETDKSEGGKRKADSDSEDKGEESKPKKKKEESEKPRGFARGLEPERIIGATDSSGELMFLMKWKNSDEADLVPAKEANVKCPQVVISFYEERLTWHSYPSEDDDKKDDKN
Assay: HTS for Inhibitors of HP1-beta Chromodomain Interactions with Methylated Histone Tails; note: nearly all actives have a fitted effect of over 70% in size
Settings: AlphaScreen HP1-beta / biotin-H3K9me3 peptide binding; series mostly up to 114 µM; activity change, negative = inhibition: at the top concentration
Outline: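 HP1-beta protein (50 nM final) preincubated 30 min at room temperature with biotinylated H3(1-18)K9me3 peptide (50 nM) in PBS pH 7.4, 0.01% Tween-20, then compound added for 30 min. AlphaScreen streptavidin donor/nickel chelate acceptor beads (10 ug/mL final), 30 min dark, luminescence read.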
Potency is the fitted concentration of half-maximal effect; tags give direction and shape of the fitted curve.

SMILES | activity change, negative = inhibition | Potency
COc1ccc(C2CC(c3ccccc3)=NN2c2ccc(Cl)c(C(=O)O)c2)cc1 (stereo unspecified) | inactive: 90.5% | 
COc1ccc(OC)c(CNc2ccc([N+](=O)[O-])cc2C)c1 |  | inconclusive: 50.1 µM [inhibitor, partial curve]
O=C(NCc1ccccc1)N1CCN(c2ccc(F)cc2)CC1 |  | inconclusive: 6.31 µM [inhibitor, single point]
N#C/C(=C\c1ccc(O)c(O)c1)C(=O)c1ccc(O)c(O)c1 |  | inconclusive: 0.794 µM [inhibitor, full curve, poor fit]
Cc1ccccc1CN1CCN(C/C=C/c2ccccc2)CC1 |  | inconclusive: 22.4 µM [inhibitor, full curve]
Cc1ccc(-c2nc(S(=O)(=O)c3ccc(Cl)cc3)c(N3CCCCC3)o2)cc1 |  | inconclusive: 14.1 µM [inhibitor, full curve]
Cc1cccc(NC(=O)C2CCN(S(=O)(=O)c3cccc4nonc34)CC2)c1 | inactive: 16.1% | 
CCOc1ccc(OCCC(=O)OCC(=O)Nc2cc(OCC)c(N3CCOCC3)cc2OCC)cc1 |  | inconclusive: 39.8 µM [inhibitor, partial curve]
COc1cc(/C=C2/C(=O)NN(c3cccc(Cl)c3)C2=O)cc(Br)c1O |  | inconclusive: 31.6 µM [inhibitor, partial curve]
COc1ccc(/C=C/C(=O)c2cc(Br)ccc(=O)c2O)cc1 |  | active: 50.1 µM
Cc1ccc2nc(NC(=O)CSc3nc(=O)n(CCCN(C)C)c4c3CCC4)sc2c1 |  | inconclusive: 89.1 µM [inhibitor, single point]
O=C(O)CCC(=O)Nc1ccc(/C=C/C(=O)C2CC2)cc1 | inactive: 15.7% | 
COc1ccc2ccccc2c1/C=N/Nc1ccc(Cl)c(C(=O)O)c1 |  | inconclusive: 89.1 µM [inhibitor, partial curve, poor fit]
O=C(O)c1cc(O)c2c(c1)[C@@H]([C@H]1c3cc(C(=O)O)cc(O)c3C(=O)c3c(O[C@@H]4O[C@H](CO)[C@@H](O)[C@H](O)[C@H]4O)cccc31)c1cccc(O[C@@H]3O[C@H](CO)[C@@H](O)[C@H](O)[C@H]3O)c1C2=O |  | active: 1.26 µM
CCCN(C(=O)c1cc(-c2ccco2)nc2ccccc12)c1c(N)n(Cc2ccccc2)c(=O)[nH]c1=O |  | inconclusive: 70.8 µM [inhibitor, partial curve]
Cn1c(-c2ccccc2)cnc1NCc1cc2c(cc1[N+](=O)[O-])OCO2 |  | inconclusive: 44.7 µM [inhibitor, partial curve]
Cc1ccc(-c2csc(NC(=O)c3ccc(-c4ccccc4)cc3)n2)o1 |  | inconclusive: 22.4 µM [inhibitor, full curve]
CCOc1ccccc1OCc1nn2c(COc3ccccc3)nnc2s1 |  | inconclusive: 25.1 µM [inhibitor, single point]
COC(=O)c1cc2oc3ccccc3c2n1CC(=O)Nc1cc(OC)cc(OC)c1 | inactive: 2.59% | 
O=C(NC(=S)Nn1cnnc1)c1ccccc1Br |  | inconclusive: 8.91 µM [inhibitor, partial curve]
Cc1ccc(C2=Nc3ccccc3N(CC(=O)Nc3ccccc3C)C(=O)C2)cc1C | inactive: -14.5% | 
CC(C)(C)c1ccc(C(=O)NC(=S)Nc2sc3c(c2C#N)CCC3)cc1 |  | inconclusive: 31.6 µM [inhibitor, partial curve]

SMILES | activity change, negative = inhibition | Potency
O=C1CCCCCN1Sc1ccccc1 | inactive: 54.2% | 
Cc1ccccc1NC1=C/C(=N\S(=O)(=O)c2ccc(C(=O)O)cc2)c2ccccc2C1=O |  | active: 44.7 µM
CCOC(=O)N1CCN(CC(=O)Nc2ccc(C)c(Br)c2)CC1 |  | inconclusive: 50.1 µM [inhibitor, partial curve, poor fit]
COc1ccc(OC)c(NC(=O)Cn2nc(C)c3ccccc3c2=O)c1 | inactive: 23.7% | 
COCCn1c(C)c(C)c2c(NCCc3ccccc3)ncnc21 |  | inconclusive: 15.8 µM [inhibitor, partial curve, poor fit]
Cc1cccc(-c2nc(SCC(=O)NCC3CCCO3)c3c(=O)n(C)c(=O)n(C)c3n2)c1 (stereo unspecified) | inactive: 56.6% [at 57 µM] | 
CCn1c2ccccc2c2cc(CN3CCN(S(=O)(=O)Cc4ccccc4)CC3)ccc21 |  | inconclusive: 20 µM [inhibitor, full curve]
CC(C)(C)C(=O)NC(NC(=S)Nc1sc2c(c1C#N)CCCC2)C(Cl)(Cl)Cl (stereo unspecified) |  | inconclusive: 25.1 µM [inhibitor, single point]
N#Cc1nc(COc2ccccc2)oc1N1CCCC1 |  | inconclusive: 56.2 µM [inhibitor, partial curve, poor fit]
O=C1c2cccc(NCCCNCCO)c2C(=O)c2cccc(NCCCNCCO)c21 |  | inconclusive: 56.2 µM [inhibitor, partial curve, poor fit]
CCC(C(=O)N1CCN(c2cc(Cl)ccc2C)CC1)n1nc(C)c2sc3ccccc3c2c1=O (stereo unspecified) | inactive: 26.7% | 
CCCN(CCC)CC(C)(C)NS(=O)(=O)c1ccc(Cl)cc1 |  | inconclusive: 56.2 µM [inhibitor, partial curve, poor fit]
COc1cc(C(=O)Nc2nc(C)c(Cc3ccc4c(c3)OCO4)s2)cc(OC)c1OC |  | inconclusive: 10 µM [inhibitor, partial curve]
O=C(CSc1nnc(SCc2cccc3ccccc23)s1)Nc1ccc(C(=O)O)cc1 |  | inconclusive: 25.1 µM [inhibitor, full curve]
Cc1oc(-c2ccc(F)cc2)cc1-c1nn2c(-c3ccoc3C)nnc2s1 |  | inconclusive: 3.98 µM [inhibitor, full curve, poor fit]
O=C(NNC(=O)c1ccc(Cl)nc1)c1ccncc1 | inactive: 12.1% | 
Cc1cc(C(=O)CN2C(=O)NC3(CCCCC3)C2=O)c(C)n1-c1ccc2c(c1)OCO2 |  | inconclusive: 28.2 µM [inhibitor, full curve]
Cc1ccc(OC(=O)c2ccc(N3CCOCC3)c([N+](=O)[O-])c2)cc1 |  | inconclusive: 39.8 µM [inhibitor, partial curve, poor fit]
CCCCC(=O)OCC(=O)C1(O)Cc2c(O)c3c(c(O)c2C(OC2CC(NC(=O)C(F)(F)F)C(O)C(C)O2)C1)C(=O)c1c(OC)cccc1C3=O (stereo unspecified) |  | inconclusive: 44.7 µM [inhibitor, partial curve, poor fit]
Cc1nnc(NCc2ccco2)s1 | inactive: 22.7% | 
CC(C)(C)NC(=O)C(c1ccccc1)N(C(=O)c1ccco1)C1CC1 (stereo unspecified) |  | inconclusive: 89.1 µM [inhibitor, single point]
COc1ccccc1OCCNc1cc(N2CCCCC2)ccc1[N+](=O)[O-] |  | inconclusive: 14.1 µM [inhibitor, full curve]

SMILES | activity change, negative = inhibition | Potency
COc1ccc2[nH]c3c(=O)n(CCCCC(=O)NCCN4CCCC4)c(=S)[nH]c3c2c1 |  | inconclusive: 31.6 µM [inhibitor, single point]
COc1ccc(CNC(=O)Nc2ccc(OC)cc2)cc1 | inactive: 15.3% | 
COc1cc(C(=O)N2CCN(Cc3ccccc3C(F)(F)F)CC2)cc(OC)c1OC |  | inconclusive: 15.8 µM [inhibitor, single point]
CCOC(=O)c1c(CN2CCCCC2)oc2ccc(OC)cc12 |  | inactive
Cc1ccc(S(=O)(=O)NC(=O)c2ccc(-c3ccc(C)c4ccccc34)o2)cc1 | inactive: -2.07% | 
CCOC(=O)c1scc(-c2ccc(C)cc2)c1S(=O)(=O)Nc1cccc(CC)c1 | inactive: 5.2% | 
Cc1cc(OCC(C)C)ccc1/C(O)=C1/C(=O)C(=O)N(Cc2cccnc2)C1c1ccncc1 (stereo unspecified) | inactive: 26.8% | 
COc1cccc(CNc2ncc(-c3ccc(Br)cc3)n2C)c1 |  | inconclusive: 39.8 µM [inhibitor, partial curve]
COc1ccc(C(=O)C2CCN(C(=O)Nc3ccc(C)cc3)CC2)cc1 |  | inconclusive: 89.1 µM [inhibitor, single point]
COc1ccc(CNc2ncc(-c3cccc([N+](=O)[O-])c3)n2C)c(OC)c1OC |  | inconclusive: 20 µM [inhibitor, full curve, poor fit]
CC1=C(SCCC#N)S/C(=C2\SC(C)=C(SCCC#N)S2)S1 |  | inconclusive: 31.6 µM [inhibitor, single point]
CC1CC(C)CN(c2oc(Cc3ccccc3)nc2C#N)C1 (stereo unspecified) |  | inconclusive: 15.8 µM [inhibitor, partial curve, poor fit]
COc1cc(C2C(C#N)=C(N)Oc3cc(O)ccc32)cc2c1OCO2 (stereo unspecified) |  | inconclusive: 70.8 µM [inhibitor, single point]
CCN(CC)S(=O)(=O)c1cccc(-c2n[nH]c(=S)n2/N=C/c2ccc(OC(F)F)cc2)c1 |  | inconclusive: 35.5 µM [inhibitor, partial curve]
CCCc1c(C)[nH]c2ccc(C(=O)O)cc2c1=S |  | inconclusive: 50.1 µM [inhibitor, single point]
COc1ccc(C(CNC(=O)c2cc(SC)ccc2Cl)N(C)C)cc1 (stereo unspecified) | inactive: 48.7% | 
CC(C)c1ccccc1OCCCN1CCCC1 |  | inconclusive: 25.1 µM [inhibitor, full curve]
COc1ccc(/C=N/NC(=O)C[n+]2ccccc2)c(OC)c1 | inactive: 40.6% | 
Cc1ccccc1NC(=O)CN1C(=O)S/C(=C\c2cccn2-c2cccc(C(=O)O)c2)C1=O |  | inconclusive: 89.1 µM [inhibitor, single point]
COc1ccc(OC)c(CCNc2nccn(-c3ccc(C)c(C)c3)c2=O)c1 |  | inconclusive: 50.1 µM [inhibitor, partial curve]
CCOC(=O)c1c(/N=C/c2cccc([N+](=O)[O-])c2O)sc2c1CCC2 |  | inconclusive: 31.6 µM [inhibitor, partial curve]
O=C(N/N=C/C=C/c1ccccc1)c1ccncc1 | inactive: 12.7% | 
